# The list shows a part of the results.
# B1: PVL (Psathyrella velutina), Q309D1_9AGAR (protein)
# chain: MSVVVISQALPVPTRIPGVADLVGFGNGGVYIIRNSLLIQVVKVINNFGYDAGGWRVEKHVRLLADTTGDNQPDVVGFGENGVWISTNNGNNTFVDPPKMVLANFAYAAGGWRVEKHIRFMADLRKTGRADIVGFGDGGIYISRNNGGGQFAPAQLALNNFGYAQGWRLDRHLRFLADVTGDGLLDVVGFGENQVYIARNSGNGTFQPAQAVVNNFCIGAGGWTISAHPRVVADLTGDRKADILGFGVAGVYTSLNNGNGTFGAVNLVLKDFGVNSGWRVEKHVRCVSSLTNKKVGDIIGFGDAGVYVALNNGNGTFGPVKRVIDNFGYNQGWRVDKHPRFVVDLTGDGCADIVGFGENSVWACMNKGDGTFGPIMKLIDDMTVSKGWTLQKTVRYAANLYL
# Legend:
# Assay in all cases: glycan array binding signal (z-score within array); higher = stronger binding
# Conditions in all cases: glycan notation: IUPAC condensed, linker removed
# [1] = target: Neu5Ac(a2-3)Gal(b1-4)GlcNAc(b1-3)[Neu5Ac(a2-3)Gal(b1-4)GlcNAc(b1-6)]GalNAc
# Procedure, shortened: (§1)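 Glycan array binding is given as a within-array Z-score, which can be read as non-binding when negative. The arrays, 3228 of them, came from the Consortium for Functional Glycomics database and were retained only where the protein sequence was available. Z-scores were averaged across arrays of the same protein sequence at different concentrations or buffers and across linkers.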
# [2] = target: Neu5Ac(a2-3)Gal(b1-4)GlcNAc(b1-6)GalNAc
# Procedure, shortened: as §1
# [3] = target: Neu5Ac(a2-3)Gal(b1-4)GlcNAc(b1-6)[Gal(b1-3)]GalNAc
# Procedure, shortened: as §1
# [4] = target: Neu5Ac(a2-3)Gal(b1-4)GlcNAc(b1-6)[Neu5Ac(a2-3)Gal(b1-3)]GalNAc
# Procedure, shortened: as §1
# [5] = target: Neu5Ac(a2-3)Gal(b1-4)GlcNAc6S
# Procedure, shortened: as §1
# [6] = target: Neu5Ac(a2-3)Gal(b1-4)[Fuc(a1-3)]GlcNAc
# Procedure, shortened: as §1
# [7] = target: Neu5Ac(a2-3)Gal(b1-4)[Fuc(a1-3)]GlcNAc(b1-2)Man
# Procedure, shortened: as §1
# [8] = target: Neu5Ac(a2-3)Gal(b1-4)[Fuc(a1-3)]GlcNAc(b1-3)Gal
# Procedure, shortened: as §1
# [9] = target: Neu5Ac(a2-3)Gal(b1-4)[Fuc(a1-3)]GlcNAc(b1-3)Gal(b1-4)GlcNAc
# Procedure, shortened: as §1
# [10] = target: Neu5Ac(a2-3)Gal(b1-4)[Fuc(a1-3)]GlcNAc(b1-3)Gal(b1-4)[Fuc(a1-3)]GlcNAc(b1-3)Gal(b1-4)[Fuc(a1-3)]GlcNAc
# Procedure, shortened: as §1
# [11] = target: Neu5Ac(a2-3)Gal(b1-4)[Fuc(a1-3)]GlcNAc(b1-3)GalNAc
# Procedure, shortened: as §1
# [12] = target: Neu5Ac(a2-3)Gal(b1-4)[Fuc(a1-3)]GlcNAc(b1-6)[Gal(b1-3)]GalNAc
# Procedure, shortened: as §1
# [13] = target: Neu5Ac(a2-3)Gal(b1-4)[Fuc(a1-3)]GlcNAc(b1-6)[Neu5Ac(a2-3)Gal(b1-3)]GalNAc
# Procedure, shortened: as §1
# [14] = target: Neu5Ac(a2-3)Gal(b1-4)[Fuc(a1-3)]GlcNAc6S
# Procedure, shortened: as §1
# [15] = target: Neu5Ac(a2-3)Gal6S(b1-4)GlcNAc
# Procedure, shortened: as §1
# [16] = target: Neu5Ac(a2-3)Gal6S(b1-4)[Fuc(a1-3)]GlcNAc
# Procedure, shortened: as §1
# Neu5Ac(a2-3)GalNAc = target: Neu5Ac(a2-3)GalNAc
# Procedure, shortened: as §1
# [17] = target: Neu5Ac(a2-3)GalNAc(b1-4)GlcNAc
# Procedure, shortened: as §1
# [18] = target: Neu5Ac(a2-3)[GalNAc(b1-4)]Gal(b1-4)Glc
# Procedure, shortened: as §1
# [19] = target: Neu5Ac(a2-3)[GalNAc(b1-4)]Gal(b1-4)GlcNAc
# Procedure, shortened: as §1
# [20] = target: Neu5Ac(a2-3)[GalNAc(b1-4)]Gal(b1-4)GlcNAc(b1-3)GalNAc
# Procedure, shortened: as §1
# [21] = target: Neu5Ac(a2-3)[Neu5Ac(a2-6)]GalNAc
# Procedure, shortened: as §1
# Neu5Ac(a2-6)Gal = target: Neu5Ac(a2-6)Gal
# Procedure, shortened: as §1
# [22] = target: Neu5Ac(a2-6)Gal(b1-3)GlcNAc(b1-3)[Gal(b1-4)GlcNAc(b1-6)]Gal(b1-4)Glc
# Procedure, shortened: as §1
# Neu5Ac(a2-6)Gal(b1-4)Glc = target: Neu5Ac(a2-6)Gal(b1-4)Glc
# Procedure, shortened: as §1
# [23] = target: Neu5Ac(a2-6)Gal(b1-4)GlcNAc
# Procedure, shortened: as §1
# [24] = target: Neu5Ac(a2-6)Gal(b1-4)GlcNAc(b1-2)Man
# Procedure, shortened: as §1
# [25] = target: Neu5Ac(a2-6)Gal(b1-4)GlcNAc(b1-2)Man(a1-3)Man(b1-4)GlcNAc(b1-4)GlcNAc
# Procedure, shortened: as §1
# [26] = target: Neu5Ac(a2-6)Gal(b1-4)GlcNAc(b1-2)Man(a1-3)[Gal(b1-4)GlcNAc(b1-2)Man(a1-6)]Man(b1-4)GlcNAc(b1-4)GlcNAc
# Procedure, shortened: as §1
# [27] = target: Neu5Ac(a2-6)Gal(b1-4)GlcNAc(b1-2)Man(a1-3)[GlcNAc(b1-2)Man(a1-6)]Man(b1-4)GlcNAc(b1-4)GlcNAc
# Procedure, shortened: as §1
# [28] = target: Neu5Ac(a2-6)Gal(b1-4)GlcNAc(b1-2)Man(a1-3)[GlcNAc(b1-4)][Neu5Ac(a2-6)Gal(b1-4)GlcNAc(b1-2)Man(a1-6)]Man(b1-4)GlcNAc(b1-4)GlcNAc
# Procedure, shortened: as §1
binder,measurement,setting,value
B1,glycan array binding signal (z-score),[1],0.13
same,glycan array binding signal (z-score),[2],-0.34
same,glycan array binding signal (z-score),[3],-0.306
same,glycan array binding signal (z-score),[4],-0.244
same,glycan array binding signal (z-score),[5],0.109
same,glycan array binding signal (z-score),[6],-0.259
same,glycan array binding signal (z-score),[7],-0.364
same,glycan array binding signal (z-score),[8],-0.252
same,glycan array binding signal (z-score),[9],-0.263
same,glycan array binding signal (z-score),[10],-0.297
same,glycan array binding signal (z-score),[11],-0.331
same,glycan array binding signal (z-score),[12],-0.546
same,glycan array binding signal (z-score),[13],-0.34
same,glycan array binding signal (z-score),[14],-0.13
same,glycan array binding signal (z-score),[15],-0.236
same,glycan array binding signal (z-score),[16],-0.302
same,glycan array binding signal (z-score),Neu5Ac(a2-3)GalNAc,-0.365
same,glycan array binding signal (z-score),[17],-0.351
same,glycan array binding signal (z-score),[18],-0.347
same,glycan array binding signal (z-score),[19],-0.277
same,glycan array binding signal (z-score),[20],-0.356
same,glycan array binding signal (z-score),[21],-0.1
same,glycan array binding signal (z-score),Neu5Ac(a2-6)Gal,-0.26
same,glycan array binding signal (z-score),[22],-0.349
same,glycan array binding signal (z-score),Neu5Ac(a2-6)Gal(b1-4)Glc,-0.355
same,glycan array binding signal (z-score),[23],-0.396
same,glycan array binding signal (z-score),[24],-0.354
same,glycan array binding signal (z-score),[25],-0.355
same,glycan array binding signal (z-score),[26],-0.362
same,glycan array binding signal (z-score),[27],0.537
same,glycan array binding signal (z-score),[28],-0.344

# — the supplement of paper PMC8728848
